Substitutions are numbered along the chain they refer to; changes in the protein carry UniProt numbers. This is one part of the list.
T1: RBFOX1 RRM (Homo sapiens, UniProt Q9NWB1 109-208)
T1 sequence: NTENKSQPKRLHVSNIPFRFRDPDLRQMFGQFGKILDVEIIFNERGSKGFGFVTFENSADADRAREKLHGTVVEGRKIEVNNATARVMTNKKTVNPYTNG

B1: AUAACUC (DNA:RNA)
RNA: GGGAGACCGGAAUUCAGAUUGUCCAUAACUCUUAAAUCCCGUCGUAGCCACCA
DNA 1: CAATCTGAATTCCGGTCTCCC
DNA 2: TGGTGGCTACGACGGGATT
B2: CUGUACG (DNA:RNA)
RNA: B1 RNA with A25C, A27G, A28U, C29A, U30C, C31G
DNA 1: CAATCTGAATTCCGGTCTCCC
DNA 2: TGGTGGCTACGACGGGATT
B3: UCUUUCC (DNA:RNA)
RNA: B1 RNA with A25U, U26C, A27U, A28U, C29U, U30C
DNA 1: CAATCTGAATTCCGGTCTCCC
DNA 2: TGGTGGCTACGACGGGATT
B4: GCUCGUC (DNA:RNA)
RNA: B1 RNA with A25G, U26C, A27U, A28C, C29G
DNA 1: CAATCTGAATTCCGGTCTCCC
DNA 2: TGGTGGCTACGACGGGATT
B5: AUAACCC (DNA:RNA)
RNA: B1 RNA with U30C
DNA 1: CAATCTGAATTCCGGTCTCCC
DNA 2: TGGTGGCTACGACGGGATT
B6: GGGUGGC (DNA:RNA)
RNA: B1 RNA with A25G, U26G, A27G, A28U, C29G, U30G
DNA 1: CAATCTGAATTCCGGTCTCCC
DNA 2: TGGTGGCTACGACGGGATT
B7: GGCCUUU (DNA:RNA)
RNA: B1 RNA with A25G, U26G, A27C, A28C, C29U, C31U
DNA 1: CAATCTGAATTCCGGTCTCCC
DNA 2: TGGTGGCTACGACGGGATT
B8: AGACUGC (DNA:RNA)
RNA: B1 RNA with U26G, A28C, C29U, U30G
DNA 1: CAATCTGAATTCCGGTCTCCC
DNA 2: TGGTGGCTACGACGGGATT
B9: AGAUCUU (DNA:RNA)
RNA: B1 RNA with U26G, A28U, C31U
DNA 1: CAATCTGAATTCCGGTCTCCC
DNA 2: TGGTGGCTACGACGGGATT
B10: CCGAGAU (DNA:RNA)
RNA: B1 RNA with A25C, U26C, A27G, C29G, U30A, C31U
DNA 1: CAATCTGAATTCCGGTCTCCC
DNA 2: TGGTGGCTACGACGGGATT
B11: CCCGGGC (DNA:RNA)
RNA: B1 RNA with A25C, U26C, A27C, A28G, C29G, U30G
DNA 1: CAATCTGAATTCCGGTCTCCC
DNA 2: TGGTGGCTACGACGGGATT
B12: UCCAGCU (DNA:RNA)
RNA: B1 RNA with A25U, U26C, A27C, C29G, U30C, C31U
DNA 1: CAATCTGAATTCCGGTCTCCC
DNA 2: TGGTGGCTACGACGGGATT
B13: AGGCGAU (DNA:RNA)
RNA: B1 RNA with U26G, A27G, A28C, C29G, U30A, C31U
DNA 1: CAATCTGAATTCCGGTCTCCC
DNA 2: TGGTGGCTACGACGGGATT
B14: GUAGCCG (DNA:RNA)
RNA: B1 RNA with A25G, A28G, U30C, C31G
DNA 1: CAATCTGAATTCCGGTCTCCC
DNA 2: TGGTGGCTACGACGGGATT
B15: UUUGCUG (DNA:RNA)
RNA: B1 RNA with A25U, A27U, A28G, C31G
DNA 1: CAATCTGAATTCCGGTCTCCC
DNA 2: TGGTGGCTACGACGGGATT
B16: GUCCACU (DNA:RNA)
RNA: B1 RNA with A25G, A27C, A28C, C29A, U30C, C31U
DNA 1: CAATCTGAATTCCGGTCTCCC
DNA 2: TGGTGGCTACGACGGGATT
B17: UGCGGGU (DNA:RNA)
RNA: GGGAGACCGGAAUUCAGAUUGUCCUGCGGGUUUAAAUCCCGUCGUAGCCACCA
DNA 1: CAATCTGAATTCCGGTCTCCC
DNA 2: TGGTGGCTACGACGGGATT
B18: CAAUAAU (DNA:RNA)
RNA: B1 RNA with A25C, U26A, A28U, C29A, U30A, C31U
DNA 1: CAATCTGAATTCCGGTCTCCC
DNA 2: TGGTGGCTACGACGGGATT
B19: ACCUUCU (DNA:RNA)
RNA: B17 RNA with U25A, G26C, G28U, G29U, G30C
DNA 1: CAATCTGAATTCCGGTCTCCC
DNA 2: TGGTGGCTACGACGGGATT
B20: CGUGUGA (DNA:RNA)
RNA: B17 RNA with U25C, C27U, G29U, U31A
DNA 1: CAATCTGAATTCCGGTCTCCC
DNA 2: TGGTGGCTACGACGGGATT

These binders were tested against T1, RBFOX1 RRM (assay: EMSA; HiTS-Eq, 1 nM pool, 10 min; buffer printed only for the single-RNA assays: 10 mM Tris pH 7.5, 150 mM NaCl, 3.4 mM EDTA, 0.001% NP-40, 30 C). Conditions: tags: His6 N-terminal (pET28a); label: 5' 32P.
Procedure, shortened: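 Purified wild-type or mutant RbFox RRM at increasing concentrations was equilibrated with 1 nM of 5′-radiolabelled RNA carrying 7 randomized nucleotides for 10 min in 50 µL. Unbound RNA was separated by 8% native PAGE and sequenced. Relative association constants came from read-count changes of each RNA species compared with the control reaction, normalised to the cognate motif.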

| Binder | binding signal |
| --- | --- |
| B1 | 0.00036 KA relative to UGCAUGU |
| B2 | 0.0105 KA relative to UGCAUGU |
| B3 | 0.0045 KA relative to UGCAUGU |
| B4 | 0.0303 KA relative to UGCAUGU |
| B5 | 0.00143 KA relative to UGCAUGU |
| B6 | 0.0216 KA relative to UGCAUGU |
| B7 | 0.0127 KA relative to UGCAUGU |
| B8 | 0.0128 KA relative to UGCAUGU |
| B9 | 0.00887 KA relative to UGCAUGU |
| B10 | 0.00976 KA relative to UGCAUGU |
| B11 | 0.00898 KA relative to UGCAUGU |
| B12 | 0.00536 KA relative to UGCAUGU |
| B13 | 0.00907 KA relative to UGCAUGU |
| B14 | 0.0117 KA relative to UGCAUGU |
| B15 | 0.0217 KA relative to UGCAUGU |
| B16 | 0.00579 KA relative to UGCAUGU |
| B17 | 0.00917 KA relative to UGCAUGU |
| B18 | 0.00148 KA relative to UGCAUGU |
| B19 | 0.00415 KA relative to UGCAUGU |
| B20 | 0.0175 KA relative to UGCAUGU |
